For some assays here: What follows is the remainder of the data, with few or none of the strong results. The list shows a part of the results, in another mix than the full data.
What was measured:
[1] = target: T1, 3-phosphoinositide-dependent protein kinase 1 (Homo sapiens) (UniProt O15530); conditions: at 0.1 µM;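 also: values are mean inhibition of PDK1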
T1 sequence (whole entry): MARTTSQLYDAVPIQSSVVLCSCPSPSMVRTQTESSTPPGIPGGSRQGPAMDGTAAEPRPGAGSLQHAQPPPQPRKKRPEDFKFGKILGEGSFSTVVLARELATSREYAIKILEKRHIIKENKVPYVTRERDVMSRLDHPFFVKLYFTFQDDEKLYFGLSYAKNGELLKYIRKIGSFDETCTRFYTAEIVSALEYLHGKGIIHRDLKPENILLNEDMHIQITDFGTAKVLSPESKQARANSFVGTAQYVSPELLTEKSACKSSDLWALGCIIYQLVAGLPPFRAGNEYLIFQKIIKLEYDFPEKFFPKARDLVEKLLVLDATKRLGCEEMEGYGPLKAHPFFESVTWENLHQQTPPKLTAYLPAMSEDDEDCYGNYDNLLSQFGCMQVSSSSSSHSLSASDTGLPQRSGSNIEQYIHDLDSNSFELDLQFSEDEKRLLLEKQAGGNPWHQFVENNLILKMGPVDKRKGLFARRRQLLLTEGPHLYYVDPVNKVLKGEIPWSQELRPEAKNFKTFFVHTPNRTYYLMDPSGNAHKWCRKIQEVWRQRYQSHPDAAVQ

[2] = target: cAMP-dependent protein kinase catalytic subunit alpha (Homo sapiens) (UniProt P17612); conditions: at 0.1 µM
[3] = target: cAMP-dependent protein kinase catalytic subunit alpha (Homo sapiens) (UniProt P17612); conditions: at 1 µM
[4] = target: Protein kinase C alpha type (Homo sapiens) (UniProt P17252); conditions: at 0.1 µM
[5] = target: Protein kinase C alpha type (Homo sapiens) (UniProt P17252); conditions: at 1 µM
[6] = target: Protein kinase C beta type (Homo sapiens) (UniProt P05771); conditions: at 0.1 µM
[7] = target: Protein kinase C beta type (Homo sapiens) (UniProt P05771); conditions: at 1 µM
[8] = target: Protein kinase C eta type (Homo sapiens) (UniProt P24723); conditions: at 0.1 µM
[9] = target: Protein kinase C eta type (Homo sapiens) (UniProt P24723); conditions: at 1 µM
[10] = target: Protein kinase C gamma type (Homo sapiens) (UniProt P05129); conditions: at 0.1 µM;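 also: values are mean percent inhibition of PKC gamma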

Structure (SMILES) | inhibition [1] [%] | inhibition [2] [%] | inhibition [3] [%] | inhibition [4] [%] | inhibition [5] [%] | inhibition [6] [%] | inhibition [7] [%] | inhibition [8] [%] | inhibition [9] [%] | inhibition [10] [%]
O=C1NC(=O)C(c2ccccc2)=C1Nc1ccccc1 | 1.52 | 2.01 | 3.06 | 1.42 | 8.34 | 2 | 6.45 | 4.22 | 8.36 | 2.11
O=C1NC(=O)C(c2ccccc2Cl)=C1Nc1cc(Cl)c(O)c(Cl)c1 | 0.58 | 1.04 | 2.86 | 0.29 | 3.25 | 0.56 | 2.96 | 2.28 | 5.57 | 10.1
Fc1ccc(-c2ncn(C3CCNCC3)c2-c2ccnc(Oc3cccc(C(F)(F)F)c3)n2)cc1 | 1.95 | 2.76 | 6.59 | 0.04 | 3.09 | 0.77 | 3.8 | 6.23 | 3.59 | 0.59
O=C1NC(=O)C(c2cccc([N+](=O)[O-])c2)=C1Nc1cc(Cl)c(O)c(Cl)c1 | 1.36 | 3.2 | 4.75 | 0 | 1.77 | -0.53 | 1.87 | 1.43 | 1.81 | -1.64
CC(C)(C)c1ccc(Oc2nccc(-c3c(-c4ccc(F)cc4)ncn3C3CCNCC3)n2)cc1 | 1.76 | 4.03 | 20.7 | 0.9 | 4.89 | 0.73 | 3.55 | 5.31 | 5.77 | 2.31
NC(=O)CCc1ccccc1Oc1nccc(-c2c(-c3ccc(F)cc3)ncn2C2CCNCC2)n1 | -1.17 | 0.78 | 5.64 | -0.77 | -0.05 | -1.55 | 1.67 | -0.99 | -0.13 | 0.02
O=C(O)c1ccc(Oc2nccc(-c3c(-c4ccc(F)cc4)ncn3C3CCNCC3)n2)cc1 | -0.16 | 4.08 | 10.3 | 0.88 | 1.21 | 1.67 | 2.29 | 4.1 | 5.29 | 2.37
COc1ccccc1C1=C(Nc2ccccc2)C(=O)NC1=O | 3.16 | 1.28 | 1.88 | 1.1 | 9.05 | 2.3 | 16.9 | 2.58 | 7.31 | 5.14
Fc1ccc(-c2ncn(C3CCNCC3)c2-c2ccnc(Oc3cccc(F)c3)n2)cc1 | 1.28 | 6.22 | 35.4 | 1.31 | 4.73 | 2.31 | 8.71 | 3.44 | 5.74 | 2.57
CS(=O)(=O)c1ccc(Oc2nccc(-c3c(-c4ccc(F)cc4)ncn3C3CCNCC3)n2)cc1 | 0.38 | 2.2 | 3.67 | 0.53 | 2.33 | 2.26 | 2.31 | 5.38 | 4.36 | 1.85
Cc1cccc(Oc2nccc(-c3c(-c4ccc(F)cc4)ncn3C3CCNCC3)n2)c1C | -0.35 | 4.13 | 17.5 | 0.78 | 1.91 | -0.74 | 6.3 | 2.76 | 3.94 | 2.45
Fc1ccc(Oc2nccc(-c3c(-c4ccc(F)cc4)ncn3C3CCNCC3)n2)cc1 | 0.43 | 0.91 | 15.2 | -3.28 | -2.01 | 1.77 | 4.96 | 3.18 | 5.19 | 0.91
COc1ccccc1Oc1nccc(-c2c(-c3ccc(F)cc3)ncn2C2CCNCC2)n1 | 0.65 | 2.95 | 6.69 | 1.33 | 1.42 | 1.79 | 3.03 | 2.13 | 6.84 | 1.62
Fc1ccc(-c2ncn(C3CCNCC3)c2-c2ccnc(Oc3ccc(Cl)cc3)n2)cc1 | -0.6 | 7.91 | 44.7 | 0.46 | 2.11 | 1.12 | 8.1 | 3.99 | 3.69 | -0.24

Source: ChEMBL document CHEMBL1961873, “Compounds: GSK PKIS; Assays: Nanosyn kinase panel” (2012)
